Experimental data as given in the supplement of paper PMC12217912.
This is one part of the list. The full chains were built here from the parent and the listed change. Values near 0.05 are background.

B1: TEV protease; numbered along this chain (parent)
chain: MGESLFKGPRDYNPISSSICHLTNESDGHTTSLYGIGFGPFIITNKHLFRRNNGTLVVQSLHGVFKVKDTTTLQQHLVDGRDMIIIRMPKDFPPFPQKLKFREPQREERICLVTTNFQTKSMSSMVSDTSCTFPSGDGIFWKHWIQTKDGQCGSPLVSTRDGFIVGIHSASNFTNTNNYFTSVPKNFMELLTNQEAQQWVSGWRLNADSVLWGGHKVFMVKPEEPFQPVKEATQL

Variants of: B1
Test: raw area under fraction-flipped curve 0-4 h after induction (AUC4h, not background-subtracted), DNA-recorder readout of cleavage of the substrate (dimensionless); higher = more cleavage of the substrate by the protease variant
Conditions: temperature: 34 °C; time window: 0-4 h after rhamnose induction
Procedure: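 In vivo DNA recorder in E. coli TOP10(DE3) ΔrhaA at 34 °C. Each TEVp single-site mutant (parent TEVp 0) is paired with a single-site variant of the 7-mer TEVs (canonical ENLYFQ|S). The substrate sits between flexible linkers in a Bxb1-sfGFP-TEVs-SsrA fusion, so cleavage stabilises Bxb1 and speeds flipping of a recombination array, read by NGS. The value is the raw area under the fraction-flipped curve over 0-4 h after rhamnose induction (AUC4h), with ≥20 reads per time point. It is not background-subtracted; inactive controls average about 0.047.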
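Note: Bxb1 expression induced with 0.2% (w/v) L-rhamnose at OD600 near 0.5, cultures sampled hourly, flipped fraction per protease–substrate barcode pair counted by paired-end Illumina sequencing.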

Variant | area with substrate EALYFQS | area with substrate ECLYFQS | area with substrate EELYFQS | area with substrate EFLYFQS | area with substrate EGLYFQS | area with substrate EILYFQS | area with substrate EKLYFQS | area with substrate ELLYFQS | area with substrate EMLYFQS | area with substrate EPLYFQS | area with substrate EQLYFQS | area with substrate ERLYFQS | area with substrate ESLYFQS | area with substrate ETLYFQS | area with substrate EVLYFQS | area with substrate EWLYFQS | area with substrate EDLYFQS | area with substrate EHLYFQS | area with substrate EYLYFQS
R10D | 0.116 | 0.112 | 0.112 | 0.094 | 0.1 | 0.0884 | 0.0995 | 0.122 | 0.0939 | 0.103 | 0.145 | 0.0898 | 0.101 | 0.0562 | 0.0829 | 0.101 |  |  | 
R10W | 0.123 |  | 0.105 |  | 0.122 | 0.0814 | 0.0998 | 0.108 | 0.115 | 0.124 | 0.123 | 0.0922 | 0.0837 | 0.107 | 0.0974 | 0.129 | 0.15 | 0.165 | 0.0551
T30R | 0.117 | 0.122 |  | 0.0944 | 0.103 | 0.0786 | 0.109 | 0.132 |  | 0.118 |  |  | 0.104 |  | 0.0963 | 0.0862 |  | 0.108 | 0.121
T31V | 0.152 | 0.122 |  |  | 0.101 | 0.105 | 0.0968 | 0.128 | 0.117 | 0.145 | 0.142 | 0.1 | 0.111 |  | 0.178 |  | 0.131 |  | 0.146
H21V | 0.103 | 0.119 | 0.126 |  | 0.0746 | 0.0751 | 0.102 | 0.0739 | 0.0774 | 0.112 | 0.114 | 0.0739 | 0.101 | 0.0999 | 0.0915 | 0.081 |  | 0.127 | 0.127
S26Q | 0.102 | 0.0798 | 0.0928 | 0.0949 | 0.0666 | 0.0615 | 0.0786 |  | 0.0899 |  | 0.0737 | 0.0758 | 0.0815 | 0.0855 | 0.0653 |  |  | 0.0784 | 0.0886
S26E | 0.0843 |  |  | 0.123 | 0.0806 | 0.0889 | 0.0811 |  | 0.0872 | 0.0816 | 0.0971 | 0.0814 | 0.0888 | 0.0934 | 0.103 |  | 0.121 |  | 
S26R | 0.0895 |  | 0.112 | 0.12 | 0.0644 | 0.0742 |  | 0.0628 | 0.0669 |  | 0.0914 | 0.0894 | 0.0739 | 0.08 | 0.0743 |  | 0.0717 | 0.0578 | 
S17P | 0.103 |  | 0.107 |  | 0.0727 | 0.112 |  | 0.1 | 0.0955 | 0.116 | 0.109 | 0.0832 | 0.0958 | 0.101 | 0.0972 | 0.0929 | 0.105 |  | 0.0912
L22S | 0.0666 | 0.0524 | 0.0497 | 0.0564 | 0.0502 | 0.0473 | 0.0535 | 0.0546 | 0.0493 | 0.0495 | 0.0484 | 0.044 | 0.055 | 0.0527 | 0.0506 | 0.049 |  |  | 0.0589
L22Y | 0.0491 |  | 0.0305 |  | 0.0517 | 0.0596 | 0.0585 | 0.0395 |  | 0.0478 | 0.0504 |  | 0.0485 | 0.044 | 0.071 | 0.0534 |  |  | 
L22D | 0.0468 |  | 0.0516 |  | 0.0429 | 0.0451 | 0.0462 | 0.0444 |  | 0.0441 | 0.0617 | 0.0455 | 0.0505 |  | 0.0484 | 0.0488 | 0.0544 | 0.0498 | 0.0437
